According to ChEMBL document CHEMBL4888484, “Replenishing the malaria drug discovery pipeline: Screening and hit evaluation of the MMV Hit Generation Library 1 (HGL1) against asexual blood stage Plasmodium falciparum ,using a nano luciferase reporter read-out” (2022):
Out of some 150,000 compounds screened, about 540 (0.36%) showed an effect of 50% or more. Some of the results follow.

test system: Plasmodium falciparum; assay: Primary screen in NF54 nanoGlo assay, in single point, at 2uM, 72h; a lower Z score goes with more inhibition; type: functional, Erythrocyte; details: timepoint 72 hour

SMILES | % Inhibition [%] | Z score
COc1cccc(CN2CCC[C@H](NCc3c(C)nn(-c4ccc(F)cc4)c3C)C2)c1 | 7 | -0.87
Cc1c(CC(=O)N2CCC2)c2c(n1Cc1ccccc1F)CCCC2=O | 5 | -0.72
CC1(C)COCCN1Cc1nc(-c2cccnc2)no1 | -31 | 3.62
COc1ccc([C@H](CNC(=O)c2n[nH]nc2C)N2CCCCC2)cc1 | -6 | 0.71
Cc1ccc(-c2nc(C#N)c(S(=O)(=O)Cc3ccccc3F)o2)cc1 | -2 | 0.28
COC(=O)C[C@H](C)NC(=O)Nc1ccc(F)c(C)c1 | -9 | 0.87
CCc1ccc(C(C)(C)NS(=O)(=O)[C@@H](C)C(=O)N(C)C)cc1 | 3 | -0.45
Cc1nc(C(C)C)sc1C(=O)N1CC[C@]23C(=O)N(CC(=O)NCCCOc4cccc(c4)[C@H]12)c1ccccc13 | -11 | 1.61
O=C(c1cnccn1)N1C2C=CCC1CC2 (stereo unspecified) | -2 | 0.4
O=C(O)c1ccccc1CCC(=O)N1CC(c2ccccc2)C2CCCC21 (stereo unspecified) | 23 | -2.96
CC(C)(C)OC(=O)N1CCCC(NCC(O)c2ccsc2)C1 (stereo unspecified) | -4 | 0.46
CN(C)c1cc(Cn2c(=O)[nH]c3ccccc3c2=O)ccn1 | -19 | 1.78
O=C(NCc1ccccn1)c1ccc(Nc2c(Oc3ccccc3)cnn(-c3ccc(F)cc3)c2=O)cc1 | -2 | 0.16
COc1ccc(CNC(=O)Cn2nc(C(=O)N3CCCC3)ccc2=O)cc1 | -8 | 1.1
CC(C)(C)[C@H]1CCCN(C(=O)CCNC(N)=O)C1 | -6 | 0.98
Cc1cccc(N2CC[C@@H](C(=O)N3CCN(Cc4ccccc4)CC3)C2=O)c1C | 13 | -1.6
CON(C)c1ncnc2scc(-c3ccc(Cl)cc3)c12 | -2 | 0.36
Cn1ncc2c(=O)n(Cc3nc4ccccc4o3)nnc21 | -10 | 1.28
CN(C)C(=O)CO[C@H]1CCOC[C@H]1Nc1nc(N)nc2[nH]ncc12 | -6 | 0.94
CCc1cnc(CCNc2nc3c(cnn3C(C)(C)C)c(=O)[nH]2)s1 | -5 | 0.99
Cc1cc(C)c(C(=O)N2CC(N3CCOCC3)C2)c(=O)[nH]1 | -13 | 1.11
Cc1ccc(Nc2c(-c3c[nH]c4ccccc34)nc3cnccn23)c(Br)c1 | 7 | -0.82
Cc1ncsc1CCNC(=O)[C@@H]1CCCN1S(C)(=O)=O | -15 | 2.94
O=C(Nc1cnns1)c1cccc(CN2[C@@H]3CC[C@H]2C[C@@H](O)C3)c1 | -3 | 0.34
CC(C)C1CN(C(=O)NC2CCc3[nH]cnc3C2)CCCO1 (stereo unspecified) | 5 | -0.88
Oc1ccc(Cc2ccccc2)cc1CNc1ccc2oc(Cc3ccc(Cl)cc3)nc2c1 | 1 | -0.07
CCCCN1CCN(C(=O)c2ccc(NC(=O)C3CCC3)cc2)CC1=O | -6 | 0.54

SMILES | % Inhibition [%] | Z score
CC(C)NC(=O)CCNC(=O)NCCc1cccc(F)c1F | -7 | 0.74
CC(C)c1ccc(CNc2nc(-c3ccco3)n[nH]2)cc1 | -1 | 0.24
CN(C)c1cc(C(F)(F)F)nc(N2CCC(CNS(C)(=O)=O)CC2)n1 | -1 | 0.07
CC1(C)CN(CN2CCN(c3ccccc3)CC2)c2nnc(-c3ccccc3)n2C1 | 31 | -3.96
Cc1c(N2CCC(C(=O)NCCCN(C)C3CCCCC3)CC2)c(=O)n(C)c(=O)n1-c1ccccc1 | -10 | 1.95
CN(CCS(C)(=O)=O)C(=O)c1occc1-c1ccc(F)cc1 | 12 | -1.5
COC1CCN(C(=O)c2cc(C3CC3)[nH]n2)CC1 | -9 | 1.63
Cc1n[nH]c(C)c1C(C)CC(=O)NC(c1ccccc1)C1CCCO1 (stereo unspecified) | -7 | 0.86
CCc1cccc(CC)c1N1C(=O)C2CCC(c3ccccc3)CC2C1=O (stereo unspecified) | -6 | 0.78
CCN(CC)C(=O)C1=CC(c2ccc3c(c2)OCO3)=NS(=O)(=O)N1C | -13 | 2.42
O=C(COc1ccccc1)Nc1ccc(N2CCCN(Cc3ccc(Cl)c(Cl)c3)C2=O)cc1 | -16 | 1.57
Cc1cccc(NC(=O)c2ccc(=O)n(CCC(=O)NC3CCCC3)n2)c1 | 2 | -0.19
N#Cc1ncccc1S(=O)(=O)NCc1noc(-c2ccccc2)n1 | -12 | 1.1
CCn1c(C)nnc1COc1ccc2c(c1)CCC2 | -18 | 2.31
Cc1ccc(S(=O)(=O)Nc2c(S(=O)(=O)c3ccc(C)cc3)c3nc4ccccc4nc3n2CCC(C)C)cc1 | 85 | -10.94
O=C(c1cccs1)N1CCOC2CCCCC21 (stereo unspecified) | -13 | 1.56
CN(CCc1ccccn1)C(=O)/C(=C/c1ccccc1)NC(=O)c1ccccc1 | -3 | 0.62
COc1ccc(CC(=O)N2CCN(c3nc(-c4ccccc4)no3)CC2)cc1 | -12 | 1.69
CCN(Cc1cc(-c2ccc(C)cc2C)on1)C(=O)NC(C)C | 6 | -0.95
Cc1ccc(CS(=O)(=O)N(CCO)C2CCC2)c(F)c1 | -5 | 0.77
CCNC(=O)[C@H]1Cc2ccccc2CN1C(=O)c1ccn(C)c(=O)c1 | -14 | 1.2
CC[C@H]1CN(Cc2ccnn2-c2ccccc2)CCN1C(C)C | -3 | 0.36
Cc1ccc(CNC(C)CC(O)c2ccc(F)cc2)nc1 (stereo unspecified) | 2 | -0.21
O=C(NC[C@H]1COc2ccccc2O1)c1ccccc1-c1ccccc1 | -12 | 1.83
Cc1ccc(NC(=O)N2CC[C@H]3C(=O)NCCCCCN(Cc4cccnc4)[C@@H]3C2)cc1C | -9 | 1.34
CN(Cc1ccccc1)c1cnn(C[C@H](O)CO)c(=O)c1 | -6 | 0.75
